Assay results as given in PubChem BioAssay AID504332 (National Center for Advancing Translational Sciences (NCATS), 2011).
Out of some 350,000 compounds screened, about 31,000 (8.9%) were called active. Inconclusive results, whose numbers are uncertain, are shown with a selection of clear calls. The call rests on the fitted dose curve; in most records, active means well fitted inhibition curve with a large enough effect; inconclusive means small, poorly fitted or top-dose-only effect; inactive means no such curve, though single readings can be large or run the other way. Potencies of inconclusive entries are doubtful fits and often do not repeat.

target: Histone-lysine N-methyltransferase EHMT2 (Homo sapiens) (UniProt Q96KQ7); assay: qHTS Assay for Inhibitors of Histone Lysine Methyltransferase G9a; details: G9a H3K9 monomethylation, AlphaScreen, 2 h; activity, negative = inhibition: at 59 µM (top of the series) unless noted; further: nearly all actives have a fitted effect of over 75% in size
Chain of UniProt Q96KQ7 (Q96KQ7 whole entry, looked up): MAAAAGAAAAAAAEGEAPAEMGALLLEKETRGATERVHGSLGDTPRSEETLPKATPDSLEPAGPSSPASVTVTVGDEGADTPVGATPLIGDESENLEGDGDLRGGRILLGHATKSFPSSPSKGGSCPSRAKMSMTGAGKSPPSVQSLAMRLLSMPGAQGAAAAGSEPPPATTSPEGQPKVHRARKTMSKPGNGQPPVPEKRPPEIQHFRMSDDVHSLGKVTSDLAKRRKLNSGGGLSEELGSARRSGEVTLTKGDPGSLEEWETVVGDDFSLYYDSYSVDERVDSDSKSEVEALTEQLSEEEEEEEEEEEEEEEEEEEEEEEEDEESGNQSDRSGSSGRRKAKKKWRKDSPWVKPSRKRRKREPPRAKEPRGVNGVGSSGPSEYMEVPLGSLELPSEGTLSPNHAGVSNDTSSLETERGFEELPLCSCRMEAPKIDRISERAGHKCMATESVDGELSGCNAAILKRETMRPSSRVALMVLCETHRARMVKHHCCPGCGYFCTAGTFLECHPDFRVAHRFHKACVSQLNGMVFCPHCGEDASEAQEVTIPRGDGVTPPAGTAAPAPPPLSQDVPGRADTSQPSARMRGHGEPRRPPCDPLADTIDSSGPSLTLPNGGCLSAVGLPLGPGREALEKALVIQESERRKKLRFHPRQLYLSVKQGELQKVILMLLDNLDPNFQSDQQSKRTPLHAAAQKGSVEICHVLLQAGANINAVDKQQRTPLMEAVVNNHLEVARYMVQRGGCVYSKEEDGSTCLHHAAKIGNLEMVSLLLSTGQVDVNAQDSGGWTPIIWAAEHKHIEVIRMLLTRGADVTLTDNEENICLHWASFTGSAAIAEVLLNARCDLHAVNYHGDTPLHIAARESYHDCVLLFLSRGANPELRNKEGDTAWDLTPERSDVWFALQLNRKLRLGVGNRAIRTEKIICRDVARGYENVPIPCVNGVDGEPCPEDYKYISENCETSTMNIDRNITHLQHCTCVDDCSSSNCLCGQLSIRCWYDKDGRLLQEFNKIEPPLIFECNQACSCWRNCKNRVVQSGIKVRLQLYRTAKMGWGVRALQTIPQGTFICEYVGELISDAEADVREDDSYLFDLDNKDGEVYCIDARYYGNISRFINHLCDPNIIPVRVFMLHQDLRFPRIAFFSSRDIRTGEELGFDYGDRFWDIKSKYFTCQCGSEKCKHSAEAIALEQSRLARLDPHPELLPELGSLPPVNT
Method in brief: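 Chemiluminescent proximity detection of H3K9 monomethylation, read after 10 min bead incubation in the dark. Reaction: 20 nM G9a, 500 nM biotin-H3K9 peptide, 20 uM SAM cofactor, 2 h, room temperature, following 15 min enzyme-compound preincubation.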
On the % scale 0 is the no-effect control and ±100 the full control effect; potency means the concentration at half of the fitted maximal effect; tags describe the fitted curve by direction and shape.

SMILES	activity, negative = inhibition	Potency
O=C1CCCC(O)=C1C=NCCc1ccccc1	inactive: -16.2%	
Cc1cc(O)c(C(c2ccccc2Cl)N2CCN(c3ccccc3)CC2)c(=O)n1Cc1ccco1 (stereo not drawn)		inconclusive: 39.8 µM [inhibitor, single point]
CCOC(=O)CN1C(=O)S/C(=C/C=C/c2ccc(N(C)C)cc2)C1=O		active: 10 µM
O=C(CSc1cn(Cc2cccc(F)c2)c2ccccc12)NCc1ccc(F)cc1		inconclusive: 4.47 µM [inhibitor, partial curve, poor fit]
CCCC(=NCC(=O)O)C1=C(O)C(C(=O)OC)C(C)(C)CC1=O (stereo not drawn)		inconclusive: 28.2 µM [inhibitor, single point]
CCOc1ccc(S(=O)(=O)NCCCn2ccnc2)cc1NC(C)=O		inconclusive: 89.1 µM [inhibitor, single point]
COC(=O)/C(=C/c1cn(C)c2ccccc12)[N+](=O)[O-]	inconclusive: -130% [inhibitor]	
COc1cc(NC(=O)c2cnn(-c3cccc(F)c3)c2C2CCNCC2)cc(OC)c1OC		inconclusive: 28.2 µM [inhibitor, single point]
CCNc1nc(NCC)nc(N/N=C/c2ccc(N(C)C)cc2)n1		active: 50.1 µM
COc1ccc2o/c(=N/NC(=S)Nc3ccccc3)c(C(N)=O)cc2c1		inconclusive: 79.4 µM [inhibitor, single point]
CCCSc1nc(C)c(-c2csc(C(C#N)=C3CCCC3)n2)cc1C#N	inconclusive: -99.9% [inhibitor]	
Cc1cc(/C=N/Nc2ccc([N+](=O)[O-])cn2)c(C)n1-c1ccccc1		inconclusive: 20 µM [inhibitor, partial curve, poor fit]
Cc1ccc(OCCNC(=O)CNC(=O)c2ccc(C)c(C)c2)cc1	inactive: 24.7% [at 2.33 µM]	
COc1ccccc1N1CCN(C(=S)Nc2ccc3nc(N4CCOCC4)cc(C)c3c2)CC1		active: 56.2 µM
Nc1c(C(=O)c2ccc(Br)cc2)oc2ccccc12		inconclusive: 39.8 µM [inhibitor, single point]
COc1cccc(C(=O)CSc2nnnn2C)c1		inconclusive: 89.1 µM [inhibitor, single point]
Cn1cccc1Cc1nnc(SCC(=O)Nc2ccccc2)n1-c1ccc(F)cc1		active: 44.7 µM
COc1cc(C(C)=O)ccc1Oc1cc(NN2CCCCC2)c([N+](=O)[O-])cc1[N+](=O)[O-]		active: 28.2 µM
NC(=O)c1c(N)sc(=S)n1CC1CCCO1 (stereo not drawn)		inconclusive: 100 µM [inhibitor, single point]
O=C(Nc1cc(C(F)(F)F)ccc1N1CCOCC1)c1ccc2ccccc2n1		inconclusive: 28.2 µM [inhibitor, single point]
Cn1nc(C(=O)N2CCN(c3ccccc3F)CC2)c2c1-c1ccccc1SC2		active: 14.1 µM
CC(Sc1nnc2n1CCCCC2)C(=O)Nc1ccc(S(N)(=O)=O)cc1 (stereo not drawn)		active: 44.7 µM
COc1ccccc1S(=O)(=O)Cc1ccc(C(=O)N2CCCC2)o1		inconclusive: 89.1 µM [inhibitor, single point]
CCOc1ccc(-c2cnc(NCc3ccc(OC)cc3OC)n2C)cc1		active: 15.8 µM
COCCCN1C(=O)C(=O)/C(=C(/O)c2ccc(OC(C)C)cc2)C1c1cccnc1 (stereo not drawn)		inconclusive: 35.5 µM [inhibitor, single point]

SMILES	activity, negative = inhibition	Potency
CCc1c(C)sc2c1CCN(Cc1ccc(F)cc1)C2c1ccccc1 (stereo not drawn)		inconclusive: 35.5 µM [inhibitor, single point]
Cc1ccc(OCCC(=O)OCC(=O)NCc2ccccc2)cc1		inconclusive: 50.1 µM [inhibitor, partial curve, poor fit]
NN1C(=O)/C(=C\c2ccco2)SC1=S		active: 25.1 µM
Cc1cc(C(=O)Nc2ccccc2)c(C)o1		inconclusive: 25.1 µM [inhibitor, single point]
Clc1cccc(-c2ccc(C=Nc3ccc(N4CCOCC4)cc3)o2)c1		active: 3.16 µM
CCc1c(C)sc(NC(=O)C2CCCO2)c1C#N (stereo not drawn)		active: 8.91 µM
CC(C)C[C@H](NC(=O)CCn1nnc2ccccc2c1=O)C(=O)O	inactive: -5% [at 102 µM]	
CCCCNC(=O)CCCn1c(=O)c2ccccc2n(Cc2ccccc2C)c1=O	inactive: 7.58%	
CC(C)(C)NC(=O)C(c1ccncc1)N(Cc1ccco1)C(=O)c1ccc(-c2ccccc2)[nH]1 (stereo not drawn)		active: 22.4 µM
CC(=O)c1ccc(NC(=O)c2ncn(-c3ccccc3)n2)cc1	inactive: -1.81%	
COC(=O)c1ccc(C)c(NC(=O)CCSc2ccc(Cl)cc2)c1	inactive: -35.8% [at 102 µM]	
COc1ccc(Cl)cc1NC(=O)CCC(=O)c1ccc(C)cc1	inactive: 0.463%	
Cc1ccc2nc(N(Cc3cccnc3)C(=O)C3COc4ccccc4O3)sc2c1 (stereo not drawn)	inactive: 7.39%	
Cc1ccn2c(CNCCn3nc(C)cc3C)c(C(=O)N3CCCCCC3)nc2c1		inconclusive: 89.1 µM [inhibitor, single point]
O=C(NCc1cccnc1)c1cccc(NC(=O)c2ccco2)c1		inconclusive: 39.8 µM [inhibitor, single point]
COc1ccc(-c2noc(-c3ccc(NCc4ccccc4OC)c([N+](=O)[O-])c3)n2)cc1		inconclusive: 25.1 µM [inhibitor, partial curve, poor fit]
Cc1ccc(C2=Nc3ccccc3N(CC(=O)Nc3cccc(F)c3)C(=O)C2)cc1C	inactive: -4.66%	
O=C(Nc1ccccc1)Nc1sccc1-c1nc2ccccc2s1	inactive: -38.8% [at 102 µM]	
Cc1nn(CC(=O)NNC(=S)Nc2ccccc2)c(C)c1[N+](=O)[O-]	inconclusive: -58.6% [inhibitor] [at 12.7 µM]	
O=C(NNC(=S)NC1CCCCC1)c1sc2ccccc2c1Cl	inactive: -27.2%	
CC(Oc1cccc(Cl)c1)C(=O)Nc1cc(S(=O)(=O)N2CCOCC2)ccc1N1CCCC1 (stereo not drawn)		inconclusive: 56.2 µM [inhibitor, partial curve, poor fit]
CC(C)CN(CC(C)C)C(=O)CN1c2cccc3cccc(c23)S1(=O)=O		inconclusive: 1.26 µM [inhibitor, partial curve, poor fit]
O=C(NCCCN1CCCCCC1)c1ccc(N2CCCC2=O)cc1		active: 22.4 µM
COc1cc(C(=O)OC(C)CN2CCCCC2)cc(OC)c1OC (stereo not drawn)		inconclusive: 89.1 µM [inhibitor, single point]
C=C1CCC2[C@](C)(CO[C@@H]3O[C@H](CO)[C@@H](O)[C@H](O)[C@H]3O)CCC[C@@]2(C)[C@@H]1CCC1=CCOC1=O (stereo partly drawn)	inactive: 8.29% [at 12.7 µM]	

SMILES	activity, negative = inhibition	Potency
CC(=O)/C(=N/Nc1ccccc1[N+](=O)[O-])N1CCCc2ccccc21		active: 5.01 µM
O=C(CN1CCN(Cc2ccc(Cl)cc2)C1=O)NCc1ccc(F)cc1	inactive: -4.97%	
Cn1c(=O)c2c(nc(CN3CCN(C(c4ccccc4)c4ccccc4)CC3)n2CCCO)n(C)c1=O	inactive: -3.37% [at 102 µM]	
CCOc1ccccc1N(C)C(=O)C1CCCN(c2ncnc3onc(-c4ccc(F)cc4)c23)C1 (stereo not drawn)	inactive: -36.1%	
CC(C)(C)C(=O)COC(=O)C1=NN(c2ccccc2)C(=O)CC1	inactive: 7.43% [at 2.33 µM]	
Cc1c(C(=O)c2ccc(Cl)cc2[N+](=O)[O-])c2ccccn2c1CCC#N		active: 11.2 µM
Cc1cc(C)nc(NC(=O)CSc2nc3ccccc3o2)n1		inconclusive: 79.4 µM [inhibitor, single point]
CCOc1ccc(-c2c(C(=O)N/N=C/c3cccnc3)nnn2-c2nonc2N)cc1		inconclusive: 15.8 µM [inhibitor, partial curve, poor fit]
O=c1oc2c3c(ccc2c2ccccc12)OCN(Cc1cccc(Cl)c1)C3		active: 0.891 µM
O=C(CCc1nc(-c2ccccc2F)no1)NCCN1CCc2ccccc2C1		inconclusive: 89.1 µM [inhibitor, single point]
CC(C)[C@H](NC(=O)c1ccccc1)C(=O)OCC(=O)N1CCCc2ccccc21		inconclusive: 39.8 µM [inhibitor, single point]
CN(C)CCCNc1oc(/C=C/c2ccc(F)cc2)nc1C#N	inactive: -27.6%	
O=[N+]([O-])c1cc(S(=O)(=O)Nc2ccc(Cl)cc2)ccc1N/N=C/c1ccncc1	inactive: -25.3% [at 102 µM]	
COc1ccc(C(=O)Nc2nc3ccc(S(C)(=O)=O)cc3s2)cc1		inconclusive: 39.8 µM [inhibitor, single point]
CCC(C)NC(=O)c1ccc(NC(=O)CC2SC(N3CCCCC3)=NC2=O)cc1 (stereo not drawn)	inactive: -0.745% [at 12.7 µM]	
O=C(CNC(=O)c1ccccc1Cl)N/N=C/C=C/c1ccccc1		inconclusive: 39.8 µM [inhibitor, single point]
CN(C)S(=O)(=O)c1cccc(NC(=O)CNCC2CCCCC2)c1		active: 14.1 µM
CCOc1ccc(C(=O)CSc2nnc(N)s2)cc1		active: 31.6 µM
CC(C)CC(=O)Nc1ccc(C(=O)CN2CCN(c3ccc(O)cc3)CC2)cc1		active: 5.01 µM
CCCCn1c(N)c(N(CC(C)C)C(=O)C2CCN(c3ncnc4sc(C)c(C)c34)CC2)c(=O)[nH]c1=O		inconclusive: 44.7 µM [inhibitor, partial curve, poor fit]
O=C(NCCc1ccccc1C(F)(F)F)C1CCC(=O)N(CCCN2CCCC2=O)C1 (stereo not drawn)	inactive: 1.68% [at 102 µM]	
O=C(c1ccc2c(c1)OCCO2)N(Cc1cccnc1)c1nc2ccc(F)cc2s1		inconclusive: 7.08 µM [inhibitor, single point]
N#Cc1c(N)oc(-c2ccccc2)c1-c1ccccc1		inconclusive: 14.1 µM [inhibitor, partial curve]
